# Experimental data reported in PubChem BioAssay AID588855 (National Center for Advancing Translational Sciences (NCATS), 2011).
# In all, about 410,000 compounds went through this assay and about 5,000 (1.2%) were called active. This list was built around the results that the source calls inconclusive (neither active nor inactive); the mix of calls is not that of the screen. The call rests on the fitted dose curve; in most records, active means well fitted inhibition curve with a large enough effect; inconclusive means small, poorly fitted or top-dose-only effect; inactive means no such curve, though single readings can be large or run the other way. Potencies beside an inconclusive call are fits to weak or partial responses and may not hold up.
# Test: qHTS for Inhibitors of TGF-b; further: nearly all actives have a fitted effect of over 65% in size
# Conditions: HepG2 CAGA-GFP TGF-b/SMAD3 reporter, GFP fluorescence, 18 h, TGF-beta stimulated, 500 pg/mL final; series mostly up to 46.1 µM
# Outline: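 Per well, imaged GFP fluorescence of HEPG2 CAGA-GFP cells gives the signal; cells get compound, then TGF-beta (500 pg/mL final), 18 h at 37 degrees C; %Activity versus -TGF-beta and +DMSO controls.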
# Potency means the concentration at half of the fitted maximal effect; tags describe the fitted curve by direction and shape.
row,SMILES,Potency
1,O=C(CSc1nnnn1-c1ccccc1Cl)Nc1ccc2c(c1)OCCO2,inactive
2,O=S(=O)(Nc1cccc(-c2cn3c(n2)SCC3)c1)c1cccs1,"inconclusive: 35.5 µM [inhibitor, single point]"
3,C=Cc1ccc(COc2ccc3oc(-c4ccccc4)c(C(=O)OCC)c3c2)cc1,inactive
4,O=C(O)c1ccccc1C(=O)Nc1ccc(-n2nccc2C(F)(F)F)cc1,inactive
5,CCCc1[nH]n(-c2ccc([N+](=O)[O-])cc2)c(=O)c1C=NCCc1ccc(OC)c(OC)c1,inactive
6,COc1cccc(C2Nc3ccccc3NC3=C2C(=O)CC(C)(C)C3)c1OC (stereo not drawn),"inconclusive: 17.8 µM [inhibitor, single point]"
7,O=C(Nc1cccc(F)c1)c1ccc(S(=O)(=O)N2CCCCC2)cc1,inactive
8,CNc1c(Br)cc(C(O)C2=CCc3ccccc32)cc1Br (stereo not drawn),inactive
9,CCCCCc1c2c(cc(O)c1C(=O)O)OC(=O)c1cc(C(=O)CCCC)c(OC)cc1O2,"inconclusive: 35.5 µM [inhibitor, single point]"
10,c1cncc(-c2nc(NCC3COc4ccccc4O3)c3ccccc3n2)c1 (stereo not drawn),"inconclusive: 35.5 µM [inhibitor, single point]"
11,O=C(O)CSc1nnc(C2CC2)n1-c1ccccc1,"inconclusive: 6.31 µM [inhibitor, single point]"
12,Nc1cc2c3c(cccc3c1)C(=O)N(CCN1CCCC1)C2=O,"inconclusive: 17.8 µM [inhibitor, single point]"
13,O=C(NNc1ccc(C(F)(F)F)cc1[N+](=O)[O-])c1ccc(NS(=O)(=O)c2ccc(F)cc2)cc1,"inconclusive: 22.4 µM [inhibitor, partial curve, poor fit]"
14,CCc1ccc(C(=O)CN(C#N)c2nc(C)cc(C)n2)cc1,"inconclusive: 22.4 µM [inhibitor, single point]"
15,Cc1ccc(/C=C2/NC(=O)N(Cc3ccccc3)C2=O)o1,"inconclusive: 22.4 µM [inhibitor, partial curve, poor fit]"
16,CC1CC2(C)Oc3ccccc3CC2C(C)C1CNCCCN(C)C (stereo not drawn),"inconclusive: 35.5 µM [inhibitor, single point]"
17,O=C1c2cccc3cccc(c23)C(=O)N1CCCN1CCN(c2ccc(F)cc2)CC1,"inconclusive: 25.1 µM [inhibitor, single point]"
18,Cc1cccc(N(CC(=O)NC2CCCCC2)C(=O)c2ccc(C)s2)c1,inactive
19,COC(=O)c1cc(S(=O)(=O)N2CCN(C(=O)c3ccco3)CC2)cn1C,inactive
20,Cc1ccc(C(C(=O)NC2CCCCC2)N(C(=O)c2csnn2)C2CC2)cc1 (stereo not drawn),inactive
21,COc1cccc(NC(=O)Cn2c(=O)n(CCc3ccccc3)c(=O)c3c4c(sc32)CN(C(C)=O)CC4)c1,inactive
22,Cc1ccc(C(=O)c2oc3ccccc3c2NC(=O)COc2ccccc2Cl)cc1,inactive
23,CCOC(=O)c1cc2c(=O)n3ccccc3nc2n(CC2CCCO2)c1=NC(=O)c1ccc(OC)cc1OC (stereo not drawn),"inconclusive: 35.5 µM [inhibitor, single point]"
24,CCOC(=O)N1CCC(NC(=O)CC2C(=O)NCCN2Cc2ccc(C)cc2)CC1 (stereo not drawn),"inconclusive: 35.5 µM [inhibitor, single point]"
25,CC(C)N1CCC1(C)C(=O)Nc1ccccc1OC(F)F (stereo not drawn),inactive

row,SMILES,Potency
1,Cc1cc(C(=O)CSc2nnnn2-c2ccccc2)c(C)n1-c1ccc2c(c1)OCO2,"inconclusive: 3.55 µM [inhibitor, full curve, poor fit]"
2,CCCNC(=O)C(CC)n1nc(CC)n2c(cc3oc(C)cc32)c1=O (stereo not drawn),"inconclusive: 35.5 µM [inhibitor, single point]"
3,CCN(CC)CCCn1c2c(c(SCC(=O)Nc3cccc(C(C)=O)c3)nc1=O)CCC2,inactive
4,CCOc1ccc(/C=N/NC(=O)Cc2csc(Nc3cccc(C(F)(F)F)c3)n2)cc1,"inconclusive: 22.4 µM [inhibitor, single point]"
5,COc1cccc(C(=O)c2cn(CC(=O)NCCc3ccccc3)c3nc(C)ccc3c2=O)c1,"inconclusive: 14.1 µM [inhibitor, single point]"
6,CC1(C)CC(=O)C2=C(C1)N(c1cccc(O)c1)C1=C(C2)C(=O)CC(C)(C)C1,"inconclusive: 35.5 µM [inhibitor, single point]"
7,O=C1CC(c2ccco2)CC2=C1C(c1cccnc1)n1nc(C(F)(F)F)nc1N2 (stereo not drawn),inactive
8,Cc1oc(-c2cccc(Cl)c2)nc1CN1CCCC(C(=O)N2CCN(c3ccc(F)cc3)CC2)C1 (stereo not drawn),"inconclusive: 2.82 µM [inhibitor, full curve]"
9,COCC(C)n1c(C)cc(C(=O)CSc2cc(C)c3ccccc3n2)c1C (stereo not drawn),"inconclusive: 35.5 µM [inhibitor, single point]"
10,COc1ccccc1CNC(=O)C(C)Sc1ccc(C)cc1 (stereo not drawn),inactive
11,O=C(Nc1ccc(C(=O)NC2CCCCC2)cc1)c1cncc(Br)c1,inactive
12,CC(C)c1ccc(N(C(=O)c2snc(C(N)=O)c2N)C(C(=O)NCC2CCCO2)c2ccc(N(C)C)cc2)cc1 (stereo not drawn),"inconclusive: 15.8 µM [inhibitor, single point]"
13,Cc1nn(Cc2c(F)c(F)c(F)c(F)c2F)c(C)c1NC(=O)c1ccc(COc2ccc(F)cc2)o1,"inconclusive: 35.5 µM [inhibitor, single point]"
14,O=[N+]([O-])c1cc(F)c2cccnc2c1O,"inconclusive: 22.4 µM [inhibitor, single point]"
15,COc1ccccc1/C=C/C(=O)Nc1ccc2c(c1)OCCO2,inactive
16,Cc1ccc2nc(-c3ccc4c(c3)NC(=O)CO4)cn2c1,inactive
17,CCc1ccc(OCC(=O)Nc2cc(S(=O)(=O)CC)ccc2O)cc1,"inconclusive: 22.4 µM [inhibitor, single point]"
18,O=C(c1ccc(NS(=O)(=O)c2ccc(F)cc2)cc1)N1CCOCC1,inactive
19,O=C(c1cc(-c2ccc3c(c2)OCO3)on1)N1CCN(c2ccccc2)CC1,inactive
20,CCOC(=O)c1c(NC(=O)CSc2cn(CCNC(=O)c3ccccc3OC)c3ccccc23)sc2c1CCC2,"inconclusive: 6.31 µM [inhibitor, single point]"
21,CS(=O)(=O)N1CCN(C(=O)c2ccccc2F)CC1,inactive
22,CN1CC2=Cc3ccccc3OC23Oc2ccccc2C=C3C1,"inconclusive: 22.4 µM [inhibitor, single point]"
23,CCOCCCNC(=S)NCCNc1nc2c(C)cccc2cc1C#N,"inconclusive: 35.5 µM [inhibitor, single point]"
24,N/C(=N/O)c1nc(N2CCCC2)nc(N2CCCC2)n1,inactive
25,CCCCCCCC(=O)NC(Nc1ccc(S(N)(=O)=O)cc1)C(Cl)(Cl)Cl (stereo not drawn),"inconclusive: 22.4 µM [inhibitor, single point]"

row,SMILES,Potency
1,COc1ccc(C2(c3ccc(O)cc3O)CC(c3ccccc3Cl)NC(=S)N2)cc1 (stereo not drawn),"inconclusive: 22.4 µM [inhibitor, single point]"
2,CC(C)c1nc2n(n1)C1(CCCCC1)[C@@H]1CCCC[C@@H]1N2,inactive
3,O=C(CSc1nc2c([nH]c3ccccc32)c(=O)n1-c1cccc(Cl)c1)N1CCOCC1,"inconclusive: 11.2 µM [inhibitor, single point]"
4,Cc1cc(S(=O)(=O)N2CCN(c3ccccc3F)CC2)ccc1-n1cnnn1,inactive
5,CCOC(=O)N1CCN(Cc2nc(-c3ccc(C)cc3)no2)CC1,inactive
6,c1ccc2cc3c(NCCN4CCOCC4)ccnc3cc2c1,active: 3.98 µM
7,CCCOc1ccc2ccccc2c1/C=C1\SC(=O)NC1=O,"inconclusive: 35.5 µM [inhibitor, single point]"
8,Cc1cc(C)cc(N(CC(=O)N2CCN(Cc3ccccc3)CC2)S(=O)(=O)c2c(C)noc2C)c1,inactive
9,CCN(CC(=O)NCc1cccs1)C(=O)Cc1ccc(C)c(C)c1,inactive
10,CC1CCCCC1NC(=S)NC(=O)c1cccs1 (stereo not drawn),"inconclusive: 14.1 µM [inhibitor, single point]"
11,Cc1ccc(-n2c(=O)c3ccc(C(=O)NCc4ccccc4Cl)cc3n(Cc3cccc(F)c3)c2=O)cc1,inactive
12,O=C(CSc1ccc(F)cc1)NC(=O)c1ccccc1,inactive
13,O=[N+]([O-])c1cc(Cl)c(O)c2ncccc12,"inconclusive: 22.4 µM [inhibitor, single point]"
14,CC(C)c1ccc(S(=O)(=O)c2nnn3c2nc(N2CCCCC2)c2ccccc23)cc1,"inconclusive: 5.01 µM [inhibitor, single point]"
15,COC1=C(Br)C(=O)c2nc(C)ccc2C1=O,"inconclusive: 8.91 µM [inhibitor, partial curve, poor fit]"
16,CC(C)(C)C(=O)Nc1ccccc1C(=O)Nc1cc(Cl)ccc1Cl,inactive
17,Cc1ccnc(NCc2ccc(Cl)cc2)c1,inactive
18,CCCCN(CC)c1nc(-c2ccncc2)nc2ccccc12,"inconclusive: 35.5 µM [inhibitor, single point]"
19,CCc1cccc(NS(=O)(=O)c2ccc3c(c2)NC(=O)C(C)S3)c1 (stereo not drawn),"inconclusive: 35.5 µM [inhibitor, single point]"
20,CN1CC(=O)N(CC(=O)Nc2cc(Cl)cc(Cl)c2)C1=O,inactive
21,C/C(=N\N=c1/sc2ccccc2n1C)c1ccccn1,"inconclusive: 22.4 µM [inhibitor, single point]"
22,Clc1ccc(SCc2csc(N3CCOCC3)n2)cc1,"inconclusive: 35.5 µM [inhibitor, single point]"
23,COc1ccnc(Oc2ccc(F)cc2)c1C(=O)N/C=N/OCc1c(Cl)cccc1Cl,"inconclusive: 15.8 µM [inhibitor, single point]"
